Reference: the supplement of paper PMC12217912
The list shows a part of the results. Sequences were assembled here from the parent chain. Values near 0.05 are background.

B1: TEV protease; numbered along this chain (parent)
chain: MGESLFKGPRDYNPISSSICHLTNESDGHTTSLYGIGFGPFIITNKHLFRRNNGTLVVQSLHGVFKVKDTTTLQQHLVDGRDMIIIRMPKDFPPFPQKLKFREPQREERICLVTTNFQTKSMSSMVSDTSCTFPSGDGIFWKHWIQTKDGQCGSPLVSTRDGFIVGIHSASNFTNTNNYFTSVPKNFMELLTNQEAQQWVSGWRLNADSVLWGGHKVFMVKPEEPFQPVKEATQL

Variants of: B1
Experiment: raw area under fraction-flipped curve 0-4 h after induction (AUC4h, not background-subtracted), DNA-recorder readout of cleavage of the substrate (dimensionless); higher = more cleavage of the substrate by the protease variant
Conditions: temperature: 34 °C; time window: 0-4 h after rhamnose induction
Experimental: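 In vivo DNA recorder in E. coli TOP10(DE3) ΔrhaA at 34 °C. Each TEVp single-site mutant (parent TEVp 0) is paired with a single-site variant of the 7-mer TEVs (canonical ENLYFQ|S). The substrate sits between flexible linkers in a Bxb1-sfGFP-TEVs-SsrA fusion, so cleavage stabilises Bxb1 and speeds flipping of a recombination array, read by NGS. The value is the raw area under the fraction-flipped curve over 0-4 h after rhamnose induction (AUC4h), with ≥20 reads per time point. It is not background-subtracted; inactive controls average about 0.047.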
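Note: Bxb1 expression induced with 0.2% (w/v) L-rhamnose at OD600 near 0.5, cultures sampled hourly, flipped fraction per protease–substrate barcode pair counted by paired-end Illumina sequencing.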

Variant | area with substrate ENLYDQS | area with substrate ENLYEQS | area with substrate ENLYGQS | area with substrate ENLYHQS | area with substrate ENLYIQS | area with substrate ENLYKQS | area with substrate ENLYLQS | area with substrate ENLYMQS | area with substrate ENLYNQS | area with substrate ENLYPQS | area with substrate ENLYQQS | area with substrate ENLYRQS | area with substrate ENLYSQS | area with substrate ENLYTQS | area with substrate ENLYWQS | area with substrate ENLYVQS | area with substrate ENLYYQS | area with substrate ENLYCQS
K98W | 0.0534 | 0.0701 | 0.0657 | 0.0773 | 0.103 | 0.0485 | 0.106 | 0.0952 | 0.0797 | 0.0775 | 0.0471 | 0.0563 | 0.0593 | 0.0903 | 0.0761 | – | – | –
P40W | 0.0586 | 0.0357 | 0.0667 | 0.0616 | 0.121 | 0.0161 | 0.0997 | 0.0831 | – | 0.0827 | 0.0585 | – | 0.0809 | 0.0687 | – | 0.134 | 0.0461 | –
I15N | 0.0699 | 0.0547 | 0.0542 | 0.0677 | 0.132 | 0.055 | 0.0481 | – | 0.0503 | 0.06 | 0.063 | 0.0681 | 0.0534 | – | 0.0407 | 0.0752 | 0.0591 | –
G8N | 0.0445 | 0.0553 | 0.0641 | 0.0378 | – | – | – | – | 0.0551 | 0.0709 | – | 0.062 | 0.0502 | – | – | 0.116 | – | –
T192S | 0.0654 | 0.0772 | 0.0583 | 0.049 | – | – | – | 0.0849 | 0.0601 | 0.132 | – | 0.0502 | – | 0.0804 | – | 0.114 | – | 0.0644
E3Y | 0.056 | 0.0751 | – | – | – | 0.0657 | – | – | – | – | – | 0.0559 | 0.066 | – | – | 0.177 | – | –
E3N | 0.0726 | – | 0.0626 | – | – | – | – | 0.0754 | 0.0623 | – | – | – | 0.0878 | – | – | – | – | –
G214S | 0.0591 | 0.072 | – | – | 0.0795 | 0.0702 | – | – | – | – | 0.0539 | – | – | 0.0836 | 0.0687 | – | – | 0.077
F38R | 0.0587 | 0.0603 | 0.0526 | 0.0543 | 0.0842 | 0.0652 | – | 0.0716 | 0.0611 | 0.0618 | 0.0604 | 0.0499 | – | – | 0.0533 | – | 0.0506 | –
G80M | 0.0435 | 0.0654 | 0.0631 | 0.0582 | 0.138 | 0.0743 | – | 0.0827 | – | 0.0868 | 0.0521 | 0.0611 | – | 0.0866 | 0.0831 | – | 0.0688 | –
K66S | 0.0621 | 0.0655 | 0.0652 | 0.076 | 0.0962 | 0.0603 | 0.0876 | 0.133 | 0.0724 | 0.0665 | 0.0563 | 0.0549 | 0.0702 | – | 0.0816 | 0.108 | – | –
H168V | 0.0638 | 0.0029 | 0.0514 | 0.0556 | 0.134 | 0.0275 | 0.0727 | 0.0642 | 0.0587 | 0.0626 | 0.0609 | – | 0.0654 | – | 0.0584 | – | 0.0573 | 0.0627
L56A | 0.0308 | 0.0598 | 0.0605 | – | – | 0.0276 | – | 0.0549 | 0.0486 | 0.0495 | 0.0564 | – | – | – | 0.0714 | – | – | –
I86N | 0.0581 | 0.0485 | – | – | 0.0535 | – | – | 0.0518 | 0.0504 | – | 0.0429 | – | – | – | 0.0425 | 0.038 | – | –
R160Q | 0.0547 | 0.0622 | 0.0835 | 0.0619 | – | 0.0458 | – | 0.0795 | 0.0941 | 0.0798 | 0.0612 | 0.0445 | 0.0652 | 0.0939 | 0.0796 | 0.13 | – | 0.0863
